{"source": "PubChem BioAssay (Tox21)", "key": {"[1]": {"assay": "qHTS assay to identify small molecule antagonists of the androgen receptor (AR) signaling pathway using the MDA cell line in the presence of 0.5 nM R1881 - cell viability counter screen (AID 1259242); note: potency is the fitted concentration of half-maximal effect; for all read-outs here: nearly all actives have a fitted effect of over 45% in size", "in_short": "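Concentration-response screen of compounds for toxicity in MDA-kb2 reporter cells: 16 hr at 37C with 0.5 nM R1881, endpoint live-cell protease fluorescence measured in the reporter wells.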"}, "[2]": {"assay": "qHTS assay to identify small molecule agonists of the androgen receptor (AR) signaling pathway in the presence of an antagonist - cell viability counter screen (AID 1259379); for all read-outs here: potency is the fitted concentration of half-maximal effect; nearly all actives have a fitted effect of over 25% in size", "in_short": "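MDA-kb2 viability measured by CellTiter-Fluor fluorescence in the same wells as the luciferase signal; nilutamide 3.0uM final; 15-point compound titration; 16 hr at 37C.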"}, "[3]": {"assay": "qHTS assay to identify small molecule antagonists of the sonic hedgehog signaling (Shh) pathway (AID 1259369; calls by dose curve; for all read-outs here: potency is the fitted concentration of half-maximal effect; nearly all actives have a fitted effect of over 45% in size)", "in_short": "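NIH/3T3 stable Gli1-Luc clone, 2,000 cells/well, 4hr settle; cpd + conditioned medium 24hr; Luc reagent 30min RT; luminescence.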"}, "[4]": {"target": "Estrogen receptor beta (Homo sapiens) (UniProt Q92731)", "sequence (Q92731 whole entry, looked up)": "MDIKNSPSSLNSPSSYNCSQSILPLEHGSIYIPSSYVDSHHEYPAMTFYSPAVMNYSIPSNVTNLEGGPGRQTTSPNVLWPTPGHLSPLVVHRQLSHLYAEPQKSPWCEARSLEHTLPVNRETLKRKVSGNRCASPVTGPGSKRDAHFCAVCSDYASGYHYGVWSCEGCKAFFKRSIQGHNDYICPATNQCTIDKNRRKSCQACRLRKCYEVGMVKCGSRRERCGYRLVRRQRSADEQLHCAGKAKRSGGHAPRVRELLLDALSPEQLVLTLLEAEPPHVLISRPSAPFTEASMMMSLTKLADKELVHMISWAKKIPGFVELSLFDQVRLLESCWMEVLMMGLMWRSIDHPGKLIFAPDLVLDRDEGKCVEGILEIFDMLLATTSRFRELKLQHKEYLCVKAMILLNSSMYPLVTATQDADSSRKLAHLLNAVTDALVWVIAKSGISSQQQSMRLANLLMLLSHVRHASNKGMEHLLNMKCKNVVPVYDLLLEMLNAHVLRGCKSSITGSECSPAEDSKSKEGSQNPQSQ", "assay": "qHTS assay to identify small molecule agonists of the estrogen receptor beta (ER-beta) signaling pathway (AID 1259377; active = well fitted activation curve with a large enough effect in the signal ratio in the repeat runs, not every such curve was filed as active; inconclusive = weak or mixed curves, or effect the other way; the % refers to the signal ratio; note: potency is the fitted concentration of half-maximal effect; for activation: % is set by controls: 0 for no effect and ±100 for the full control effect)", "conditions": "ER-beta-UAS-bla HEK293T, beta-lactamase FRET ratio, 16 h; activation: at 92.4 µM (top of the series) unless noted", "in_short": "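Ratiometric beta-lactamase FRET read-out came after 2 h substrate loading at room temperature. It followed 16 h compound treatment at 37C of GripTite HEK293T cells carrying a UAS-bla reporter, plated in 2% charcoal-stripped FBS medium.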"}, "[5]": {"target": "Estrogen receptor beta (Homo sapiens) (UniProt Q92731)", "assay": "qHTS assay to identify small molecule antagonists of the estrogen receptor beta (ER-beta) signaling pathway (AID 1259378; active = well fitted inhibition curve with a large enough effect in the signal ratio in the repeat runs, not every such curve was filed as active; inconclusive = weak or mixed curves, or effect the other way; inactive = no such curve, though single readings can be large or run the other way; the % refers to the signal ratio; note: potency is the fitted concentration of half-maximal effect; for activity, negative = inhibition: % is set by controls: 0 for no effect and ±100 for the full control effect)", "conditions": "ER-beta-UAS-bla HEK293T, beta-lactamase FRET ratio, 16 h; for Potency: activity, negative = inhibition: at 92.4 µM (top of the series) unless noted", "in_short": "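ER-beta-UAS-bla HEK293T (GripTite) cells in 2% charcoal-stripped FBS medium were preincubated 6 hr at 37C, dosed with compound, then stimulated with 1 nM E2 (final) for 16 hr; beta-lactamase reporter read by B/G FRET fluorescence after 2 hr substrate loading.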"}, "[6]": {"target": "Androgen receptor (Homo sapiens) (UniProt P10275)", "sequence (P10275 whole entry, looked up)": "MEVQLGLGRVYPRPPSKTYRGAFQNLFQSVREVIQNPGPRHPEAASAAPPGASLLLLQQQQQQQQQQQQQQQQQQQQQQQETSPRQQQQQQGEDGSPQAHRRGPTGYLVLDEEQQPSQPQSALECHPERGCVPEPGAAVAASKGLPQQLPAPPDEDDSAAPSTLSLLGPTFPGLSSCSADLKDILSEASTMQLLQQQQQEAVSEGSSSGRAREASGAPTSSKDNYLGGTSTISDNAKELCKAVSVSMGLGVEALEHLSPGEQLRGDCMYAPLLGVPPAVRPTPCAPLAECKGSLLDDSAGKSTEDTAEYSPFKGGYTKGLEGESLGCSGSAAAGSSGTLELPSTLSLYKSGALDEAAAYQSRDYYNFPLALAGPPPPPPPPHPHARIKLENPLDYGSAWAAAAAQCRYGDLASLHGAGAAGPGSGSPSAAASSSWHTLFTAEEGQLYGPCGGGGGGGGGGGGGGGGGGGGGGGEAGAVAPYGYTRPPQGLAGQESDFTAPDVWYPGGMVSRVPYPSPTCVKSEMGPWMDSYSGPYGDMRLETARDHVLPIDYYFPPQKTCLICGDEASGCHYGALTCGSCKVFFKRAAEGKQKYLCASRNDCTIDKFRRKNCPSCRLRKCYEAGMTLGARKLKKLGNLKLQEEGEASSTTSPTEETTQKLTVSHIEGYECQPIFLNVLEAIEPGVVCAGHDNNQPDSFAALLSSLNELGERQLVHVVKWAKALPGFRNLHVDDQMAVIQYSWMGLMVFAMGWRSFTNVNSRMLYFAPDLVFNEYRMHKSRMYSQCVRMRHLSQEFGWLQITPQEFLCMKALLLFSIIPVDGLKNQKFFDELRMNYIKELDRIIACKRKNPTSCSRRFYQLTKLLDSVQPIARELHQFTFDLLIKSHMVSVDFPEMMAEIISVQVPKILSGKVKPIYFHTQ", "assay": "qHTS assay to identify small molecule antagonists of the androgen receptor (AR) signaling pathway using the MDA cell line in the presence of 0.5 nM R1881 (AID 1259243); note: nearly all actives have a fitted effect of over 50% in size; note: potency is the fitted concentration of half-maximal effect; for activity, negative = inhibition: % is set by controls: 0 for no effect and ±100 for the full control effect", "in_short": "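With R1881 held at 0.5 nM (final), compound effects on MMTV-luciferase expression in MDA-kb2 cells were scored by luminescence after a 16 hr, 37C incubation.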"}, "[7]": {"assay": "qHTS assay to identify small molecule agonists of the sonic hedgehog signaling (Shh) pathway - cell viability counter screen (AID 1259366); note: nearly all actives have a fitted effect of over 50% in size; note: potency is the fitted concentration of half-maximal effect", "in_short": "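Cytotoxicity counter screen: CellTiter-Fluor reagent added after 23 h compound exposure, then 1 h at 37C and fluorescence read. Cells were 3T3 Gli1-Luc, seeded 2,000 per well and dosed 4 h post-plating.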"}, "[8]": {"assay": "qHTS assay to identify small molecule antagonists of the sonic hedgehog signaling (Shh) pathway - cell viability counter screen (AID 1259367); note: nearly all actives have a fitted effect of over 55% in size; note: potency is the fitted concentration of half-maximal effect", "in_short": "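Cytotoxicity was assessed in parallel with Shh reporter activity by measuring live-cell protease fluorescence (CellTiter-Fluor) in NIH/3T3 cells stably carrying Gli1-Luc, treated with compound under conditioned medium stimulation for 23 hr plus 1 hr reagent incubation.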"}, "[9]": {"assay": "qHTS assay to identify small molecule agonists of the estrogen receptor beta (ER-beta) signaling pathway - cell viability counter screen (AID 1259380); note: potency is the fitted concentration of half-maximal effect; nearly all actives have a fitted effect of over 30% in size", "in_short": "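Measured: luminescence from CellTiter-Glo after 30 min at room temperature, added to wells already read for the LiveBLAzer FRET reporter (2 hr substrate); ER-beta-UAS-bla HEK293T cells had 16 hr compound treatment at 37C, 5% CO2.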"}, "[10]": {"target": "Estrogen receptor (Homo sapiens) (UniProt P03372)", "sequence (P03372 whole entry, looked up)": "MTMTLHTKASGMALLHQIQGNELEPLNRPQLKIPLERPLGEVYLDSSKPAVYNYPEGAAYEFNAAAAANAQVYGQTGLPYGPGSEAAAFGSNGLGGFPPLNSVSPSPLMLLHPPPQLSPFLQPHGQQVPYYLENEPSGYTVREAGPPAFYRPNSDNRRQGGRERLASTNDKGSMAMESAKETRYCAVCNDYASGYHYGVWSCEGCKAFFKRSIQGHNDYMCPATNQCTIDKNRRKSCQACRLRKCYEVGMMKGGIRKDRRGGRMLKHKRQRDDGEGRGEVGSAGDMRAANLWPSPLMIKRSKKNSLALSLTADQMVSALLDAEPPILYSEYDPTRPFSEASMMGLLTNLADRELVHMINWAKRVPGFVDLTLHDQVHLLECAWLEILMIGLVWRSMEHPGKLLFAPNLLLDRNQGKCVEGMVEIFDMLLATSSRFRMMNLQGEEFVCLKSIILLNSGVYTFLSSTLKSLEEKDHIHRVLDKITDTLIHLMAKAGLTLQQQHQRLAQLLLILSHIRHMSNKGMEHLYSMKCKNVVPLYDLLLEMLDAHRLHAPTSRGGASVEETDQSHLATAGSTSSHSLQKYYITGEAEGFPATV", "assay": "qHTS assay to identify small molecule antagonists of the estrogen receptor alpha (ER-alpha) signaling pathway using the BG1 cell line in the presence of 0.1 nM 17-beta-estradiol (AID 1259244); note: nearly all actives have a fitted effect of over 50% in size; note: potency is the fitted concentration of half-maximal effect", "in_short": "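Compounds were tested against 0.1 nM (final) 17beta-estradiol in VM7Luc4E2 cells, which express full-length ER-alpha and an ERE-luciferase reporter; luminescence was recorded following 22 h exposure.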"}, "[11]": {"assay": "qHTS assay to identify small molecule phospholipidosis (PLD) inducers (AID 1259344; active = well fitted curve in the direction sought with a large enough effect; inconclusive = small, poorly fitted or top-dose-only effect, or another doubt; inactive = no such curve, though single readings can be large; an effect the other way counts as inactive or inconclusive; note: potency is the fitted concentration of half-maximal effect)", "in_short": "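Cells (HepG2, 900 per well) attach for 4 h, receive LipidTOX Red and compound together, incubate 24 h at 37 C, are fixed 30 min with paraformaldehyde/Hoechst, then imaged at one site per well.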"}, "[12]": {"assay": "qHTS assay to identify small molecule antagonists of the estrogen receptor beta (ER-beta) signaling pathway - cell viability counter screen (AID 1259382); note: potency is the fitted concentration of half-maximal effect; nearly all actives have a fitted effect of over 55% in size", "in_short": "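Readout: luminescence, CellTiter-Glo, same wells as bla assay. System: ER-beta-UAS-bla GripTite HEK293T, 2% charcoal-stripped FBS. Exposure: compounds plus 1nM 17-beta-estradiol, 16 hr, 37C.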"}, "[13]": {"assay": "qHTS assay to identify small molecule HDAC inhibitors - cell viability counter screen (AID 1259365); note: potency is the fitted concentration of half-maximal effect; nearly all actives have a fitted effect of over 50% in size", "in_short": "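CellTiter-Glo luminescence (30 min, room temperature) reported viability after a 2 h compound exposure at 37 C. Cells: wild-type HCT-116, 1,500 per well, seeded the night before.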"}, "[14]": {"assay": "qHTS assay to identify small molecule HDAC inhibitors (AID 1259364); note: top concentration of the series differs between compounds; % is set by controls: 0 for no effect and ±100 for the full control effect; nearly all actives have a fitted effect of over 45% in size", "in_short": "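Screening used wild-type human colon HCT-116 cells incubated overnight, dosed with compounds for 2 hours, and assayed with a homogeneous luminogenic HDAC I/II reagent for 30 minutes at room temperature.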"}}, "note": "Several values for one entry are separate records, joined by “and”; a condition that tells them apart may be missing. Identical values can stand only once. This list was built around the results that the source calls inconclusive (neither active nor inactive); the mix of calls is not that of the screen. For some of these results: Potencies of inconclusive entries are doubtful fits and often do not repeat. More than one record can exist for a structure, and the calls need not agree. Activity calls are given as the source filed them. Unless noted, calls come from the whole dose curve; as a rule, active = well fitted curve in the direction sought with a large enough effect in the repeat runs; inconclusive = weak or mixed curves; inactive = no such curve, though single readings can be large; an effect the other way counts as inactive or inconclusive. Tags give direction and shape of the fitted curve or compound fluorescence and quenching.", "data": [{"smiles": "O=[N+]([O-])c1cc(Cl)c(Cl)c(Cl)c1Cl", "values": [{"measurement": "Potency", "setting": "[1]", "value": "inconclusive: 27.2 µM [cytotoxic, partial curve]"}, {"measurement": "Potency", "setting": "[2]", "value": "active: 24.2 µM"}]}, {"smiles": "C=CC(C)(O)CC/C=C(/C)CCC=C(C)C", "note": "(stereo unspecified)", "values": [{"measurement": "Potency", "setting": "[1]", "value": "inactive"}, {"measurement": "Potency", "setting": "[3]", "value": "inconclusive: 21.7 µM [inhibitor, full curve, poor fit]"}, {"measurement": "Potency", "setting": "[4]", "value": "inactive"}]}, {"smiles": "O=C(O)C(O)[C@H](O)[C@@H](O)[C@H](O)[C@H](O)CO", "note": "(stereo partly specified)", "values": [{"measurement": "Potency", "setting": "[1]", "value": "inactive"}, {"measurement": "Potency", "setting": "[5]", "value": "inactive"}]}, {"smiles": "c1cc(C(c2ccc(OCC3CO3)cc2)c2ccc(OCC3CO3)cc2)ccc1OCC1CO1", "note": "(stereo unspecified)", "values": [{"measurement": "Potency", "setting": "[6]", "value": "inconclusive: 54.5 µM [inhibitor, partial curve]"}, {"measurement": "Potency", "setting": "[7]", "value": "active: 61.1 µM"}, {"measurement": "Potency", "setting": "[8]", "value": "inconclusive: 61.1 µM [cytotoxic, single point]"}, {"measurement": "Potency", "setting": "[4]", "value": "inconclusive: 61.1 µM [rising, partial curve]"}, {"measurement": "Potency", "setting": "[5]", "value": "inconclusive: 54.5 µM [partial curve]"}, {"measurement": "Potency", "setting": "[9]", "value": "inconclusive: 48.6 µM [cytotoxic, partial curve]"}]}, {"smiles": "COc1cccc([C@H](O)C2CCN(CCc3ccc(F)cc3)CC2)c1OC", "values": [{"measurement": "Potency", "setting": "[1]", "value": "inactive"}, {"measurement": "Potency", "setting": "[2]", "value": "inconclusive: 68.6 µM [cytotoxic, partial curve, poor fit]"}, {"measurement": "Potency", "setting": "[9]", "value": "inconclusive: 0.386 µM [cytotoxic, full curve]"}]}, {"smiles": "CN1N=C(C(N)=O)CCC1=O", "values": [{"measurement": "Potency", "setting": "[6]", "value": "inactive"}]}, {"smiles": "CN(Cc1ccc(C(C)(C)C)cc1)Cc1cccc2ccccc12", "values": [{"measurement": "Potency", "setting": "[10]", "value": "inactive"}, {"measurement": "Potency", "setting": "[11]", "value": "inconclusive: 11.2 µM [activator, partial curve, poor fit]"}, {"measurement": "Potency", "setting": "[12]", "value": "active: 23.7 µM"}]}, {"smiles": "CC(C)Nc1ccc(NC(C)C)c2c1C(=O)c1ccccc1C2=O", "values": [{"measurement": "Potency", "setting": "[10]", "value": "inconclusive: 8 µM [inhibitor, partial curve]"}, {"measurement": "Potency", "setting": "[13]", "value": "active: 12.7 µM"}, {"measurement": "Potency", "setting": "[8]", "value": "inactive"}, {"measurement": "Potency", "setting": "[2]", "value": "active: 11.3 µM"}, {"measurement": "Potency", "setting": "[9]", "value": "inconclusive: 12.7 µM [cytotoxic, partial curve]"}]}, {"smiles": "CCOC(=O)c1c(N)sc2c1CCN(Cc1ccccc1)C2", "values": [{"measurement": "Potency", "setting": "[10]", "value": "active: 29.8 µM"}, {"measurement": "Potency", "setting": "[8]", "value": "inconclusive: 9.44 µM [rising, partial curve, poor fit]"}, {"measurement": "Potency", "setting": "[3]", "value": "active: 10.6 µM"}, {"measurement": "Potency", "setting": "[9]", "value": "inconclusive: 23.7 µM [cytotoxic, partial curve]"}]}, {"smiles": "COC(=O)c1ccc(C(=O)OC)c(C(=O)OC)c1", "values": [{"measurement": "Potency", "setting": "[10]", "value": "inconclusive: 77 µM [inhibitor, partial curve, poor fit]"}, {"measurement": "Potency", "setting": "[7]", "value": "inactive"}, {"measurement": "Potency", "setting": "[4]", "value": "inactive"}]}, {"smiles": "Nc1nc(=S)c2[nH]cnc2[nH]1", "values": [{"measurement": "Potency", "setting": "[10]", "value": "inconclusive: 59.6 µM [inhibitor, partial curve] and inconclusive: 3.44 µM [inhibitor, full curve, poor fit]"}, {"measurement": "Potency", "setting": "[11]", "value": "inconclusive: 3.98 µM [activator, full curve]"}, {"measurement": "Potency", "setting": "[7]", "value": "inconclusive: 1.06 µM [cytotoxic, full curve]"}, {"measurement": "Potency", "setting": "[8]", "value": "inconclusive: 1.33 µM [cytotoxic, full curve] and inconclusive: 1.72 µM [cytotoxic, full curve]"}, {"measurement": "Potency", "setting": "[4]", "value": "inconclusive: 66.8 µM [rising, single point]"}, {"measurement": "activity, negative = inhibition", "setting": "[5]; at 42.5 µM (top of the series)", "value": "inconclusive: -34.9%"}, {"measurement": "activity, negative = inhibition", "setting": "[5]; at 92.4 µM (top of the series)", "value": "inconclusive: -27.8%"}, {"measurement": "Potency", "setting": "[9]", "value": "inconclusive: 4.22 µM [cytotoxic, full curve]"}, {"measurement": "Potency", "setting": "[12]", "value": "inconclusive: 13.3 µM [cytotoxic, partial curve] and inconclusive: 1.93 µM [cytotoxic, full curve] and inconclusive: 5.31 µM [cytotoxic, full curve]"}]}, {"smiles": "O=C1c2ccccc2C(=O)N1CCl", "values": [{"measurement": "Potency", "setting": "[10]", "value": "inactive"}]}, {"smiles": "O=c1[nH]cnc2[nH]ncc12", "values": [{"measurement": "Potency", "setting": "[10]", "value": "inconclusive: 70.2 µM [inhibitor, single point]"}, {"measurement": "Potency", "setting": "[14]", "value": "inactive"}, {"measurement": "Potency", "setting": "[5]", "value": "active: 22.2 µM"}]}, {"smiles": "CC1(C)NC(=O)NC1=O", "values": [{"measurement": "Potency", "setting": "[10]", "value": "inactive"}, {"measurement": "Potency", "setting": "[8]", "value": "inactive"}, {"measurement": "Potency", "setting": "[9]", "value": "inconclusive: 56.4 µM [rising, partial curve, poor fit]"}]}, {"smiles": "CC(=O)Nc1ncc([N+](=O)[O-])s1", "values": [{"measurement": "Potency", "setting": "[10]", "value": "inactive"}, {"measurement": "Potency", "setting": "[3]", "value": "inconclusive: 0.119 µM [inhibitor, single point]"}]}, {"smiles": "CN1CCC(=C2c3ccccc3CCc3sccc32)CC1", "values": [{"measurement": "Potency", "setting": "[10]", "value": "inconclusive: 26.6 µM [inhibitor, partial curve, poor fit]"}, {"measurement": "Potency", "setting": "[11]", "value": "inconclusive: 11.2 µM [activator, partial curve, poor fit]"}, {"measurement": "Potency", "setting": "[4]", "value": "inactive"}, {"measurement": "Potency", "setting": "[2]", "value": "inconclusive: 29.8 µM [cytotoxic, partial curve]"}, {"measurement": "Potency", "setting": "[9]", "value": "active: 26.6 µM"}, {"measurement": "Potency", "setting": "[12]", "value": "active: 21.1 µM"}]}, {"smiles": "Cc1cc(=O)oc2cc(O)cc(O)c12", "values": [{"measurement": "Potency", "setting": "[10]", "value": "inconclusive: 19.4 µM [inhibitor, full curve]"}, {"measurement": "Potency", "setting": "[13]", "value": "inconclusive: 61.3 µM [rising, single point]"}, {"measurement": "Potency", "setting": "[7]", "value": "inconclusive: 43.4 µM [rising, partial curve]"}, {"measurement": "Potency", "setting": "[4]", "value": "inconclusive: 30.7 µM [fluorescent]"}, {"measurement": "Potency", "setting": "[5]", "value": "inconclusive: 48.7 µM [fluorescent, partial curve]"}]}]}
